Reference: the supplement of paper PMC12217912
This is one part of the list. Sequences were assembled here from the parent chain. Inactive controls read about 0.05.

B1: TEV protease; numbered along this chain (parent)
chain: MGESLFKGPRDYNPISSSICHLTNESDGHTTSLYGIGFGPFIITNKHLFRRNNGTLVVQSLHGVFKVKDTTTLQQHLVDGRDMIIIRMPKDFPPFPQKLKFREPQREERICLVTTNFQTKSMSSMVSDTSCTFPSGDGIFWKHWIQTKDGQCGSPLVSTRDGFIVGIHSASNFTNTNNYFTSVPKNFMELLTNQEAQQWVSGWRLNADSVLWGGHKVFMVKPEEPFQPVKEATQL

Variants of: B1
Experiment: raw area under fraction-flipped curve 0-4 h after induction (AUC4h, not background-subtracted), DNA-recorder readout of cleavage of the substrate (dimensionless); higher = more cleavage of the substrate by the protease variant
Conditions: temperature: 34 °C; time window: 0-4 h after rhamnose induction
Experimental: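 In vivo DNA recorder in E. coli TOP10(DE3) ΔrhaA at 34 °C. Each TEVp single-site mutant (parent TEVp 0) is paired with a single-site variant of the 7-mer TEVs (canonical ENLYFQ|S). The substrate sits between flexible linkers in a Bxb1-sfGFP-TEVs-SsrA fusion, so cleavage stabilises Bxb1 and speeds flipping of a recombination array, read by NGS. The value is the raw area under the fraction-flipped curve over 0-4 h after rhamnose induction (AUC4h), with ≥20 reads per time point. It is not background-subtracted; inactive controls average about 0.047.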
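Note: Bxb1 expression induced with 0.2% (w/v) L-rhamnose at OD600 near 0.5, cultures sampled hourly, flipped fraction per protease–substrate barcode pair counted by paired-end Illumina sequencing.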

Variant	area with substrate ENLYAQS	area with substrate ENLYDQS	area with substrate ENLYEQS	area with substrate ENLYGQS	area with substrate ENLYHQS	area with substrate ENLYKQS	area with substrate ENLYLQS	area with substrate ENLYMQS	area with substrate ENLYPQS	area with substrate ENLYQQS	area with substrate ENLYRQS	area with substrate ENLYSQS	area with substrate ENLYVQS	area with substrate ENLYWQS	area with substrate ENLYCQS	area with substrate ENLYIQS	area with substrate ENLYNQS	area with substrate ENLYYQS	area with substrate ENLYTQS
MGESLFKGPRDYNPISSSICHLTNESDGHTTSLYGIGFGPFIITNKHLFRRNNGTLVVQSLHGVFKVKDTTTLQQHLVDGRDMIIIRMPKDFPPFPQKLKFREPQREERICLVTTPFQTKSMSSMVSDTSCTFPSGDGIFWKHWIQTKDGQCGSPLVSTRDGFIVGIHSASNFTNTNNYFTSVPKNFMELLTNQEAQQWVSGWRLNADSVLWGGHKVFMVKPEEPFQPVKEATQL [N116P]	0.066	0.0447	0.0669	0.0649	0.059	0.0803	0.0799	0.0702	0.0715	0.0709	0.0685	0.0832	0.085	0.0836					
MGESLFKGPRDYNPISSSICHLANESDGHTTSLYGIGFGPFIITNKHLFRRNNGTLVVQSLHGVFKVKDTTTLQQHLVDGRDMIIIRMPKDFPPFPQKLKFREPQREERICLVTTNFQTKSMSSMVSDTSCTFPSGDGIFWKHWIQTKDGQCGSPLVSTRDGFIVGIHSASNFTNTNNYFTSVPKNFMELLTNQEAQQWVSGWRLNADSVLWGGHKVFMVKPEEPFQPVKEATQL [T23A]	0.0762	0.0538	0.0522	0.0377	0.0698	0.0627	0.101	0.099	0.0633	0.0606	0.0601	0.0695	0.0656		0.0817	0.125	0.0674	0.0835	
MGESLFKGPRDYNPISSSICHLTNESDGHTTSLYGIGFGPFIITNKHLFRRNNGTLVVQSLHGVFKVKDTTTLQQHLVDGRDMIIIRMPKDFPPFPQKLKFREPQREERICLVTTNFQTKSMSSMVSDTSCTFPSGDGIFWKHWIQTKDGQCGSPLVSTRDGFIVGIHSASNFTNTNNYFTSVPKNFMELLTNQEAQLWVSGWRLNADSVLWGGHKVFMVKPEEPFQPVKEATQL [Q198L]	0.0721	0.0605	0.0584	0.0399	0.066	0.0658			0.0178	0.06	0.0584		0.0997	0.0646		0.102	0.0713	0.0635	0.0734
MGESLFKGPRDYNPISSSICHLTNESDGHTTSLYGIGFGPFIITNKHLFRRNNGTLVVQSLHGVFKVKDTTTLQQHLVDGRDMIIIRMPKDFPPFPQKLGFREPQREERICLVTTNFQTKSMSSMVSDTSCTFPSGDGIFWKHWIQTKDGQCGSPLVSTRDGFIVGIHSASNFTNTNNYFTSVPKNFMELLTNQEAQQWVSGWRLNADSVLWGGHKVFMVKPEEPFQPVKEATQL [K100G]	0.0708	0.0371	0.0702	0.0783		0.0661	0.0822	0.0768	0.0813	0.0496	0.0662		0.112	0.0834	0.1		0.0666		
MGESLFKGPRDYNPISSSICHLTNESDGHTTSLYGIGFGPFIITNKHLFRRNNGTLVVQSLHGVFKVKDTTTLQQHLVDGRDMIIIRMPKDFPPFPQKLKFREPQREERICLVTTNFQTKSMSSMISDTSCTFPSGDGIFWKHWIQTKDGQCGSPLVSTRDGFIVGIHSASNFTNTNNYFTSVPKNFMELLTNQEAQQWVSGWRLNADSVLWGGHKVFMVKPEEPFQPVKEATQL [V126I]	0.0716	0.0629	0.0636	0.0638	0.074		0.0677	0.0753	0.0753	0.0588			0.111	0.0706			0.0709		
MGESLFKGPRDYNPISSSICHLTNESDGHTTSLYGIGFGPFIITNKHLFRRNNGTLVVQSLHGVFKVKDTTTLQQHLVDGRDMIIIRMPKDFPPFPQKLKFREPQREERICLVTTNFQTKSMSSMVSDTSCTFPSGDGIFWKHWIQTKDGYCGSPLVSTRDGFIVGIHSASNFTNTNNYFTSVPKNFMELLTNQEAQQWVSGWRLNADSVLWGGHKVFMVKPEEPFQPVKEATQL [Q151Y]	0.0764	0.064	0.0425	0.0615	0.0764	0.0732		0.068	0.0594		0.0763		0.0903	0.0603		0.0776	0.0697	0.0623	0.0715
MGESLFKGPRDYNPISSSICHYTNESDGHTTSLYGIGFGPFIITNKHLFRRNNGTLVVQSLHGVFKVKDTTTLQQHLVDGRDMIIIRMPKDFPPFPQKLKFREPQREERICLVTTNFQTKSMSSMVSDTSCTFPSGDGIFWKHWIQTKDGQCGSPLVSTRDGFIVGIHSASNFTNTNNYFTSVPKNFMELLTNQEAQQWVSGWRLNADSVLWGGHKVFMVKPEEPFQPVKEATQL [L22Y]	0.0545	0.0497	0.0387	0.0512	0.0479	0.0822		0.0453	0.0542		0.0494	0.0479	0.0585	0.0537	0.0623		0.0473	0.0442	0.0555
MGESLFKGPRDYNPISSSILHLTNESDGHTTSLYGIGFGPFIITNKHLFRRNNGTLVVQSLHGVFKVKDTTTLQQHLVDGRDMIIIRMPKDFPPFPQKLKFREPQREERICLVTTNFQTKSMSSMVSDTSCTFPSGDGIFWKHWIQTKDGQCGSPLVSTRDGFIVGIHSASNFTNTNNYFTSVPKNFMELLTNQEAQQWVSGWRLNADSVLWGGHKVFMVKPEEPFQPVKEATQL [C20L]	0.0769	0.0579	0.0737		0.0674	0.0636	0.0647	0.0773	0.0586	0.0608	0.0624	0.0649	0.0791	0.0974		0.111	0.0623	0.0672	0.0596
MGESLFKGPRDYNPISSSICHLTNESDGHTTSLYGIGFGPFIDTNKHLFRRNNGTLVVQSLHGVFKVKDTTTLQQHLVDGRDMIIIRMPKDFPPFPQKLKFREPQREERICLVTTNFQTKSMSSMVSDTSCTFPSGDGIFWKHWIQTKDGQCGSPLVSTRDGFIVGIHSASNFTNTNNYFTSVPKNFMELLTNQEAQQWVSGWRLNADSVLWGGHKVFMVKPEEPFQPVKEATQL [I43D]	0.0451		0.0401	0.0332	0.05	0.045		0.0497	0.0423	0.0425	0.0392	0.0039	0.0463	0.0366	0.0427	0.0505	0.044		
MGESLFKGPRDYNPISSSICHLTNESDGHTTSLYGIGFGPFIITNKHLFRRNNGTLVVQSLHGVFKVKDTTTLQQHLVDGRDMIIIRMPKDFPPFPQKLKFREPQREERICLVTTNFQTKSMSSMVSDTSCTFPSGDGIFWKHWIQTKDGQCGSPLVSIRDGFIVGIHSASNFTNTNNYFTSVPKNFMELLTNQEAQQWVSGWRLNADSVLWGGHKVFMVKPEEPFQPVKEATQL [T159I]	0.054	0.0551	0.0524	0.0844	0.0782	0.0164	0.0821		0.0695	0.056	0.0636	0.0761	0.123	0.0871		0.125	0.0912	0.0782	
MGESLFKGPDDYNPISSSICHLTNESDGHTTSLYGIGFGPFIITNKHLFRRNNGTLVVQSLHGVFKVKDTTTLQQHLVDGRDMIIIRMPKDFPPFPQKLKFREPQREERICLVTTNFQTKSMSSMVSDTSCTFPSGDGIFWKHWIQTKDGQCGSPLVSTRDGFIVGIHSASNFTNTNNYFTSVPKNFMELLTNQEAQQWVSGWRLNADSVLWGGHKVFMVKPEEPFQPVKEATQL [R10D]	0.0535	0.0639	0.0558	0.0566	0.0668	0.0749	0.0934	0.101	0.0721	0.0633	0.0639	0.0678	0.0859	0.0737		0.151	0.0651		
MGESLFKGPRDYNPISSSICHLTNESDGHTTSLYGIGFGPFIITNKHLFRRNNGTLVVQSLHGVFKVKDTTTLQQHLVDGRDMIIIRMPKDFPPFPQKLKFREPQREERICLVTTNFQTKSMSSMVSDTSCTFPSGDGIFWKHWIQTKDGQCGSPLVSTRDGFIVGIHSASNFTLTNNYFTSVPKNFMELLTNQEAQQWVSGWRLNADSVLWGGHKVFMVKPEEPFQPVKEATQL [N175L]	0.0525	0.0804	0.058	0.0626	0.0532	0.0659		0.0862	0.051		0.0328	0.1	0.0865	0.0122	0.0521			0.0651	
MGESLFKGPRDYNPISSSICHLTNESDGHTTSLYGIGFGPFIITNKHLFRRNNGTLVVQSLHGVFKVKDTTTLQQHLVDGRDMIIIRMPKDFPPFPQKLKFREPQREERICLVTTNFQTKSMNSMVSDTSCTFPSGDGIFWKHWIQTKDGQCGSPLVSTRDGFIVGIHSASNFTNTNNYFTSVPKNFMELLTNQEAQQWVSGWRLNADSVLWGGHKVFMVKPEEPFQPVKEATQL [S123N]	0.0677	0.0644	0.0529	0.067	0.071	0.061	0.0783	0.0857		0.0757		0.0639	0.138	0.0872	0.102	0.135	0.0727	0.0544	0.0969
MGESLFKGPRDYNPISSSICHLTNESDGHTTSLYGIGFGPFIITNKHLFRRNNGTLVVQSLHGVFDVKDTTTLQQHLVDGRDMIIIRMPKDFPPFPQKLKFREPQREERICLVTTNFQTKSMSSMVSDTSCTFPSGDGIFWKHWIQTKDGQCGSPLVSTRDGFIVGIHSASNFTNTNNYFTSVPKNFMELLTNQEAQQWVSGWRLNADSVLWGGHKVFMVKPEEPFQPVKEATQL [K66D]	0.0652	0.0785	0.0543	0.0608	0.0713	0.0575		0.0818			0.0547	0.082		0.0813		0.119	0.053	0.0655	
MGESLFKGPRDYNPISSSICHLTNESDGHTTSLYGIGFGPFIITNKHLFRRNNGTLVVQSLHGVFKVKDTTTLQQHLVDGRDMIIIRMPKDFPPFPQKLKFREPQREERICLVTTNFQTKSMSSMVSDTSCTFPSGDGIFWKHWIQTKDGQCGSPLVSTRDGFIVGIHSASNFTNTNNYFTSVPKNFMELLTNQEAQQWVGGWRLNADSVLWGGHKVFMVKPEEPFQPVKEATQL [S201G]	0.0604	0.068	0.0639	0.0598	0.0613	0.0916		0.0622	0.0545	0.0613	0.0534		0.0632	0.0629		0.091	0.0569	0.0656	0.0752
MGESLFKGPRDYNPISSSICHLTNESDGHTTSLYGIGFGPFIITNKHLFRRNNGTLVVQSLHGVFKVKDTTTLQQHLVDGRDMIIIRMPKDFPPFPQKLKFRTPQREERICLVTTNFQTKSMSSMVSDTSCTFPSGDGIFWKHWIQTKDGQCGSPLVSTRDGFIVGIHSASNFTNTNNYFTSVPKNFMELLTNQEAQQWVSGWRLNADSVLWGGHKVFMVKPEEPFQPVKEATQL [E103T]	0.0334		0.0662	0.0626	0.0659	0.0533		0.0807		0.0541	0.0493	0.0785	0.0589		0.0703		0.0709		
MGESLFKGPRDYNPISSSICHLTNESDGHTTSLYGIGFGPFIITNKHLFRRNNGTLVVQSLHGVFKVKDTTTLQQHLVDGRDMIIIRMPKDFPPFPQKLKFREPQREERICLVTTNFQTKSMSSMVSDTSCTFPSGDGIFWKHWIQTKDGQCGSPLVSTRDGFIVGIHSASNFTNTNNYFTSVPKNFMELLTNQEAQQWVSGWRLNADSVLWGGHKVFMEKPEEPFQPVKEATQL [V220E]	0.0495	0.0622			0.0702			0.11	0.0784	0.0949		0.043	0.112	0.0756	0.127	0.129	0.0606	0.0675	
